Measurements: PubChem BioAssay AID588855 (National Center for Advancing Translational Sciences (NCATS), 2011)
Among all 410,000 compounds or so, about 5,000 (1.2%) were called active. Inconclusive results, whose numbers are uncertain, are shown with a selection of clear calls. Calls come from the whole dose curve; as a rule, active = well fitted inhibition curve with a large enough effect; inconclusive = small, poorly fitted or top-dose-only effect; inactive = no such curve, though single readings can be large or run the other way. Potencies of inconclusive entries are doubtful fits and often do not repeat.

Experiment: qHTS for Inhibitors of TGF-b; note: nearly all actives have a fitted effect of over 65% in size
Conditions: HepG2 CAGA-GFP TGF-b/SMAD3 reporter, GFP fluorescence, 18 h, TGF-beta stimulated, 500 pg/mL final; series mostly up to 46.1 µM
How it was run: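 HEPG2 CAGA-GFP, 1000 cells/well; 2 h settle, 37 C; cpd via pin tool; TGF-b 500 pg/mL final; 18 h, 37 C; GFP imaging ex488/em500-530; %Activity normalised to -TGF-b and +DMSO controls; CRC fit, curve class.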
Potency is the fitted concentration of half-maximal effect; tags give direction and shape of the fitted curve.

Which Potency does the source give for `O=C1NC(Cc2ccccc2)c2nc3ccc(Cl)cc3c(=O)n2-c2ncccc21` (stereo not drawn) here?
The Potency was inconclusive: 35.5 µM [inhibitor, single point].

With `CC1C=CCC2C(=O)N(c3cccc(C(=O)NCc4ccccc4)c3)C(=O)C12` (stereo not drawn) as the compound, how does the Potency read?
The Potency was “inactive”.

Which Potency does the source give for `Cc1cccc(-c2ccc3[nH]c4c(c3c2)CCN2C[C@H]3[C@H](C)ON(C)[C@H]3C[C@@H]42)c1` here?
Its Potency is inconclusive: 35.5 µM [inhibitor, single point].

Which Potency does the source give for `COc1ccc(C(C#N)=C2C=C(Cl)C(=NO)C=C2Cl)cc1` here?
The Potency was inconclusive: 35.5 µM [inhibitor, single point].

With `CCOC(=O)C1(C)CCCN1C(=O)c1ccc2ccccc2c1` (stereo not drawn) as the compound, how does the Potency read?
Its Potency is “inactive”.

With `Cc1ccc(S(=O)(=O)Nc2ccc(-c3nnc(SCc4ccccc4Cl)o3)cc2)cc1` as the compound, how does the Potency read?
The Potency was inconclusive: 35.5 µM [inhibitor, single point].

With `CC(C)C(=O)N1CCN(S(=O)(=O)c2ccc3ccccc3c2)CC1` as the compound, how does the Potency read?
Its Potency is inconclusive: 11.2 µM [inhibitor, single point].

For `N#Cc1ccc(C23CC4(C2)[C@H](CN(Cc2ccc(-c5ccccc5)cc2)[C@@H]4c2ccccc2)C3c2ccc(C(F)(F)F)cc2)cc1` (stereo partly drawn), which Potency is on record?
The Potency was “inactive”.

Which Potency does the source give for `CSc1nnc(NC(=O)c2nc(S(=O)(=O)Cc3ccccc3)ncc2Cl)s1` here?
Its Potency is inconclusive: 25.1 µM [inhibitor, single point].

With `Cc1nc(SCc2nc3ccccc3[nH]2)c2oc3cc([N+](=O)[O-])ccc3c2n1` as the compound, how does the Potency read?
The Potency was inconclusive: 22.4 µM [inhibitor, partial curve, poor fit].

Which Potency does the source give for `Cc1ccc(C2/C=C\CC(NC(=O)OCC3c4ccccc4-c4ccccc43)CC(=O)N2Cc2ccccc2)cc1` (stereo not drawn) here?
Its Potency is inconclusive: 11.2 µM [inhibitor, partial curve].

With `COc1ccccc1NC(=O)CCC(=O)OCc1ccc([N+](=O)[O-])cc1` as the compound, how does the Potency read?
Its Potency is “inactive”.

With `CC1(NC(=O)NCCCCCCNC(=O)NC2(C)CCS(=O)(=O)C2)CCS(=O)(=O)C1` (stereo not drawn) as the compound, how does the Potency read?
The Potency was “inactive”.

With `Cc1nc(C)n(C(C)CNC(=O)c2ccco2)n1` (stereo not drawn) as the compound, how does the Potency read?
The Potency was “inactive”.

Which Potency does the source give for `CCC(C)(C)C1CCc2[nH]nc(C(=O)NCCNC(=O)OC(C)(C)C)c2C1` (stereo not drawn) here?
Its Potency is inconclusive: 20 µM [inhibitor, single point].

Which Potency does the source give for `O=C(Nc1nc2ccc(F)cc2s1)c1nc(S(=O)(=O)Cc2ccccc2)ncc1Cl` here?
Its Potency is inconclusive: 11.2 µM [inhibitor, partial curve, poor fit].

With `CC1CCc2c(sc3nc(C(C)(C)C)nc(N4CCN(C(=O)CCl)CC4)c23)C1` (stereo not drawn) as the compound, how does the Potency read?
Its Potency is inconclusive: 20 µM [inhibitor, single point].

With `COc1ccc2sc(N(CCCN(C)C)C(=O)c3ccc(S(=O)(=O)N(C)C4CCCCC4)cc3)nc2c1` as the compound, how does the Potency read?
Its Potency is inconclusive: 35.5 µM [inhibitor, single point].

With `Cc1ccc2[nH]c(CCN(C)C)c(CN3CCOCC3)c2c1` as the compound, how does the Potency read?
The Potency was “inactive”.

Which Potency does the source give for `COc1cccc(NC(=O)CN(Cc2ccccc2)S(C)(=O)=O)c1` here?
Its Potency is “inactive”.

For `O=C(c1ccc(S(=O)(=O)c2ccccc2Cl)c([N+](=O)[O-])c1)N1CCN(Cc2ccccc2)CC1`, which Potency is on record?
The Potency was inconclusive: 35.5 µM [inhibitor, single point].

Which Potency does the source give for `CCCCCC1CCNCC1` here?
Its Potency is inconclusive: 6.31 µM [inhibitor, full curve].

Which Potency does the source give for `O=C(Cn1c(=O)n(-c2ccc(F)c(Cl)c2)c(=O)c2sc3ccccc3c21)NC1CCCC1` here?
The Potency was “inactive”.

With `COc1cccc(-c2nn(-c3ccc(F)cc3)cc2C(=O)NCC2CCCO2)c1` (stereo not drawn) as the compound, how does the Potency read?
Its Potency is inconclusive: 0.562 µM [inhibitor, partial curve, poor fit].

With `CCOC(=O)C1CCN(C(=O)C2CCN(C3=NS(=O)(=O)C(c4ccc(C)c(C)c4)=C3C)CC2)CC1` as the compound, how does the Potency read?
The Potency was inconclusive: 22.4 µM [inhibitor, single point].

With `Cc1ccc(S(=O)(=O)Nc2ccc(N=Nc3ccc(O)cc3)cc2)cc1` as the compound, how does the Potency read?
Its Potency is inconclusive: 35.5 µM [inhibitor, single point].

With `O=C(Nc1cccc(S(=O)(=O)N2CCCCC2)c1)Nc1ccc(Cl)cc1Cl` as the compound, how does the Potency read?
The Potency was inconclusive: 5.62 µM [inhibitor, single point].

With `Cc1cccc(OCC(=O)Nc2ccc3c(c2)nc(CCN2CCCCC2)n3C)c1` as the compound, how does the Potency read?
Its Potency is “inactive”.

With `CCOC(=O)N/N=C\c1ccc(OC/C=C/c2ccccc2)cc1` as the compound, how does the Potency read?
The Potency was “inactive”.

With `Cc1onc(-c2ccccc2Cl)c1C(=O)Nc1ccc(-c2cn3cccnc3n2)cc1` as the compound, how does the Potency read?
The Potency was “inactive”.

With `CC(C)c1ccc(OCC(O)CNC(C)c2ccccc2)cc1` (stereo not drawn) as the compound, how does the Potency read?
The Potency was inconclusive: 35.5 µM [inhibitor, single point].

Which Potency does the source give for `CCCn1c(=O)c2sccc2n2c(CCCC(=O)NCc3ccco3)nnc12` here?
Its Potency is “inactive”.

Which Potency does the source give for `Cc1cc(C)c2sc(NNC(=O)c3ccc(S(=O)(=O)N4CCc5ccccc5C4)cc3)nc2c1` here?
The Potency was inconclusive: 15.8 µM [inhibitor, partial curve].

With `O=C(NCc1ccc(OC(F)(F)F)cc1)c1cccc2c1C(=O)c1ccc(N3CCCCC3)cc1S2(=O)=O` as the compound, how does the Potency read?
The Potency was inconclusive: 35.5 µM [inhibitor, single point].

Which Potency does the source give for `CSc1ncc(Cl)c(C(=O)N(Cc2ccc(N(C)C)cc2)Cc2ccco2)n1` here?
Its Potency is “inactive”.

With `Cc1cc(C)cc(N(CC(=O)NC2CCCC2)C(=O)CCC(=O)Nc2nc(C)cs2)c1` as the compound, how does the Potency read?
The Potency was inconclusive: 35.5 µM [inhibitor, single point].

Which Potency does the source give for `O=C1C=C(c2cc(C(F)(F)F)cc(C(F)(F)F)c2)C[C@@H](c2ccc(Cl)cc2)C1` here?
Its Potency is inconclusive: 15.8 µM [inhibitor, single point].

For `O=S(=O)(Cc1ccc(Cl)cc1)Nc1ccc2c(c1)OCO2`, which Potency is on record?
The Potency was inconclusive: 35.5 µM [inhibitor, single point].

Which Potency does the source give for `Cc1cc(C)cc(NC(=O)Cn2c(=O)c3ccccc3n3nncc23)c1` here?
The Potency was inconclusive: 14.1 µM [inhibitor, single point].

For `O=C(Oc1c(CN2CCOCC2)cc(Cl)c2cccnc12)c1ccccc1F`, which Potency is on record?
Its Potency is inconclusive: 3.16 µM [inhibitor, partial curve, poor fit].

Which Potency does the source give for `COc1ccc(-c2ccc(CCC(=O)O)n2-c2ccccc2OC)cc1` here?
The Potency was inconclusive: 17.8 µM [inhibitor, single point].

With `CC(C)(C)c1ccc(/C=N/N2C(=O)CSC2=S)cc1` as the compound, how does the Potency read?
The Potency was “inactive”.

Which Potency does the source give for `CCCCOc1ccc(CNC(=O)CCCN2C(=O)CSc3c2c(C)nn3-c2ccccc2)cc1` here?
The Potency was inconclusive: 14.1 µM [inhibitor, partial curve, poor fit].

For `Cc1ccc2c(=O)cc(C(=O)Nc3ccc(S(=O)(=O)N4CCCCCC4)cc3)oc2c1C`, which Potency is on record?
The Potency was inconclusive: 20 µM [inhibitor, partial curve, poor fit].

Which Potency does the source give for `CCOc1ccc(-c2[nH]ncc2Oc2cccc(OC)c2)c(O)c1` here?
The Potency was inconclusive: 35.5 µM [inhibitor, single point].

Which Potency does the source give for `CC(C)c1ccc(C2N=C(N)Nc3nc4ccccc4n32)cc1` (stereo not drawn) here?
The Potency was inconclusive: 7.94 µM [inhibitor, partial curve].

Which Potency does the source give for `Cc1ccc(NC(=O)Cc2cn(C)c3ccccc23)cc1F` here?
Its Potency is “inactive”.

With `S=C(NCCCc1cnc[nH]1)NCCCN(Cc1ccc(Cl)cc1)c1ccc(Br)cn1` as the compound, how does the Potency read?
The Potency was inconclusive: 35.5 µM [inhibitor, single point].

Which Potency does the source give for `COc1ccc(Cn2cccc(NC(=O)Nc3cccc(OC)c3)c2=O)cc1` here?
The Potency was inconclusive: 35.5 µM [inhibitor, single point].

For `CCOC(=O)C1=CCN(S(=O)(=O)c2ccc(C)cc2)C1c1ccc(Cl)c(Cl)c1` (stereo not drawn), which Potency is on record?
The Potency was inconclusive: 10 µM [inhibitor, partial curve].

With `CCSc1nnc(-c2cnn(-c3ccccc3)c2-n2cccc2)n1C` as the compound, how does the Potency read?
The Potency was inconclusive: 0.891 µM [inhibitor, full curve, poor fit].

For `C=Cc1ccc(CN2C(=O)c3ccccc3Sc3ccc(C(=O)OCc4ccco4)cc32)cc1`, which Potency is on record?
The Potency was “inactive”.

With `COCCN(C(=O)CCc1ccc(OC)cc1)c1nnc(-c2ccncc2)s1` as the compound, how does the Potency read?
The Potency was inconclusive: 17.8 µM [inhibitor, single point].

For `O=S(=O)(NCCN1CCOCC1)c1ccc2c(c1)OCCO2`, which Potency is on record?
The Potency was “inactive”.

With `Cn1ccc(/C=N/N=C2/NC(=O)CS2)n1` as the compound, how does the Potency read?
Its Potency is “inactive”.

For `NNC(=O)CN1C(c2ccc(Br)cc2)=Nc2ccc(Br)cc2C1c1ccccc1` (stereo not drawn), which Potency is on record?
Its Potency is “inactive”.

With `c1ccc(C(c2c[nH]c3ccccc23)c2c[nH]c3ccccc23)nc1` as the compound, how does the Potency read?
The Potency was inconclusive: 35.5 µM [inhibitor, single point].

Which Potency does the source give for `O=[N+]([O-])c1ccc(O)c(/C=N/Nc2ccc(Cl)nn2)c1` here?
The Potency was inconclusive: 0.1 µM [inhibitor, full curve, poor fit].

With `O=C(CCSc1ccc(Cl)cc1)N1CCN(S(=O)(=O)c2ccccc2)CC1` as the compound, how does the Potency read?
The Potency was “inactive”.

For `Cc1ccc(/C=N/NC(=O)c2cc3c(ccc4ccccc43)o2)o1`, which Potency is on record?
Its Potency is “inactive”.

With `CCC(Cc1ccccc1)NC(=O)C1CCC(CNc2c(N3CCCC3)c(=O)c2=O)CC1` (stereo not drawn) as the compound, how does the Potency read?
The Potency was inconclusive: 6.31 µM [inhibitor, single point].

For `c1ccc(COc2cccc(CNCc3cccs3)c2)cc1`, which Potency is on record?
Its Potency is inconclusive: 35.5 µM [inhibitor, single point].

With `O=C(Cn1nc(C(F)(F)F)c2c1CCCCC2)N1CCOCC1` as the compound, how does the Potency read?
The Potency was inconclusive: 35.5 µM [inhibitor, single point].

Which Potency does the source give for `O=C(NCCOc1ccc(F)cc1)c1ccccc1SCc1ccccc1` here?
Its Potency is “inactive”.

With `COc1ccc2[nH]cc(CCNC(=O)c3ccccc3Cl)c2c1` as the compound, how does the Potency read?
The Potency was “inactive”.

With `O=C(Nc1ccccc1Sc1ccccc1)c1ccccc1` as the compound, how does the Potency read?
Its Potency is “inactive”.

For `O=C(CCSCCc1ccccn1)Nc1ccc(Cl)cn1`, which Potency is on record?
The Potency was inconclusive: 6.31 µM [inhibitor, single point].

Which Potency does the source give for `Cc1ccc(NC(=O)c2cccc(S(=O)(=O)N3CCCc4ccccc43)c2)nc1` here?
The Potency was inconclusive: 20 µM [inhibitor, single point].
